The whole screen tested about 52,000 compounds, of which about 4,300 (8.3%) were called active. Rule as the data show it: active = survival mostly below about 52% (no sharp cut-off); inactive = mostly above about 56%. This is one part of the list.

This assay relates to DeltatarO mutant. Briefly: S. aureus survival, RN4220 and DeltatarO strains – OD600, teichoic acid synthesis inhibitors, primary screen (AID 463173). The note with it: S. aureus RN4220 wild type/DeltatarO growth, OD600, 18 h, stronger effect = lower value, screened at 18.75 µg/mL (by protocol).
As for `Fc1ccccc1N1CCN(c2ncnc3c2nc2n3CCCCC2)CC1`, the survival is inactive: 94%. `COc1ccc(C2C(=O)N(C3CCC(C)CC3)CC(=O)N2C2CCCCC2)cc1OC` (centres undefined): the survival is inactive: 76%.

On to `CCOc1ccc(NC(=O)CC2C(=O)N(c3ccc(F)cc3)C(=O)N2CCc2sccc2C)cc1` (centres undefined), for which the survival is inactive: 71%. The result for `O=C(CN(C(=O)c1csnn1)c1ccccc1)NCc1ccc2c(c1)OCO2` reads inactive: 70%; that for `COc1ccc(CNc2nc3c(-c4ccc(C)cc4)nnn3c3ccccc23)cc1`, inactive: 86%. The result for `COc1ccc(NC(=O)Cn2nc(SC)c(S(=O)(=O)c3ccc(C)cc3)c2N)cc1OC` reads active: 25%.

`O=c1[nH]c2cc3c(cc2cc1CN(CCN1CCOCC1)C(=S)Nc1ccccc1)OCCO3`: the survival was inactive: 69%. The same measure for `CCN(CC)CCCNC(=O)CSc1nc2nc(C)c(Cc3ccccc3C)c(C)n2n1`: inactive: 75%; for `CC(=O)OC(C(=O)n1nc(C)cc1C)c1ccccc1` (centres undefined): inactive: 91%. The same measure for `CCOc1ccc(NC(=O)C2CCCN(c3nn4cc(-c5ccc(OC)cc5)nc4s3)C2)cc1` (centres undefined): inactive: 113%; for `Cc1ccc2c(c1)nnn2C1CCN(CC(=O)N(c2ccccc2)c2ccccc2)CC1`: inactive: 98%; for `Cc1nc2nc(C)c(NS(=O)(=O)c3ccc(F)cc3)c(=O)n2[nH]1`: inactive: 90%.

In the case of `Cc1ccccc1OCCCn1c(CCNC(=O)C2CCCCC2)nc2ccccc21`, the survival is inactive: 61%.

With `O=C(Cn1cnc(S(=O)(=O)N2CCCC2)c1)Nc1cccc(F)c1`, the survival is inactive: 91%.

In the case of `COCCNS(=O)(=O)c1ccc(S(=O)(=O)N2CCCCC2)cc1`, the survival was inactive: 103%.

Consider `CN(C(=O)Cn1c(=O)n(CCC(=O)NCc2ccc3c(c2)OCO3)c(=O)c2sccc21)c1ccccc1`, for which the survival is inactive: 90%.

Consider `Cc1ccc(NC(=O)c2sc3nc4n(c(=O)c3c2C)CCCCC4)c(Br)c1`, for which the survival is inactive: 49%. The same measure for `CCOC(=O)c1cc2c(=O)n3ccccc3nc2n(CCCOC)c1=NC(=O)c1c(-c2ccccc2Cl)noc1C`: inactive: 49%; for `Cc1occc1-c1nnc(SCC(=O)NCc2ccc3c(c2)OCO3)n1CC(C)C`: inactive: 88%; for `CS(=O)(=O)Nc1ccccc1C(=O)O`: inactive: 81%. The same measure for `CCCS(=O)(=O)NCCc1csc2nc(-c3ccc(C)cc3)nn12`: inactive: 74%; for `O=C(NC1CCCCC1)c1ccc(CSc2nc3ccncc3n2Cc2ccccc2)cc1`: inactive: 70%; for `COC(=O)c1cc2oc3ccccc3c2n1CC(=O)Nc1ccc(OC)c(OC)c1`: inactive: 79%.

In the case of `CCN(c1ccc(Cl)cc1)S(=O)(=O)c1nnc(NC(=O)c2ccco2)s1`, the survival is inactive: 67%. The result for `O=C(NCCc1ccccc1)c1ccc(Cn2c(=O)c3cccn3c3cccnc32)cc1` reads inactive: 51%. The same measure for `COc1ccc(OC)c(CNC(=O)c2ccc(Sc3ccc(Cl)cc3)c(NC(C)=O)c2)c1`: inactive: 83%. The same measure for `CC(C)C(=O)Nc1nncs1`: inactive: 88%; for `Cc1ccc2onc(CC(=O)N3CCN(c4ccc(Cl)cc4)CC3)c2c1`: active: 30%; for `Cc1ccc(NC(=O)Cn2c(=O)n(CCCC(=O)NCc3ccc4c(c3)OCO4)c(=O)c3ccccc32)cc1`: inactive: 85%. Turning to `O=C1CC(c2nc3ccccc3n2CCC2CCCCC2)CN1c1ccccc1Cl` (centres undefined), the survival is active: 21%.

Regarding `Cc1cccc(N2CCN(C(=O)CCCn3c(=O)[nH]c4ccsc4c3=O)CC2)c1C`, the survival was inactive: 80%. With `CCCCCCc1c(C)c2c(cc(C)c3c(C)c(C)oc32)oc1=O`, the survival is inactive: 103%. The same measure for `O=C(CN1CC(=O)Oc2ccccc21)OCC(=O)c1ccc(F)cc1`: inactive: 100%; for `CCNc1nc(SCC(=O)OC)nc(N(C)C)n1`: inactive: 68%; for `CC(=O)c1cccc(NC(=O)C2=CC(c3ccc(F)cc3)=NS(=O)(=O)N2C)c1`: inactive: 76%. The same measure for `CCCCN(C(=O)Nc1ccc(Cl)cc1)C1CCN(C(C)=O)CC1`: inactive: 75%. With `CC(=O)N1CC=C2C(C#N)=C(N)C(C#N)(C#N)C(CCc3ccccc3)C2C1` (centres undefined), the survival is inactive: 115%. The same measure for `CCc1cccc(CC)c1N(COC)C(=O)Cn1c(CC)nc2ccccc21`: inactive: 69%; for `Cc1ccc(C)c(NC(=O)CCS(=O)(=O)c2cccc3nsnc23)c1`: inactive: 120%. The result for `Cn1c(=O)oc2cc(S(=O)(=O)N3CCCC(C(=O)N4CCN(c5ccc(Cl)cc5)CC4)C3)ccc21` (centres undefined) reads inactive: 49%; that for `CCc1ccc2nc(N3CCN(C(=O)c4ccccc4)CC3)sc2c1`, inactive: 92%. Regarding `Cc1ccc(C)c(N2CCN(C(=O)C3CCN(S(=O)(=O)c4ccc5[nH]c(=O)oc5c4)CC3)CC2)c1`, the survival was inactive: 74%. The same measure for `CCOc1cc(C2C(C(=O)Nc3ccccc3)=C(C)Nc3ncnn32)cc(Br)c1O` (centres undefined): inactive: 102%. For `CCC(C)NC(=O)C1CCN(S(=O)(=O)c2ccc(-n3cnnn3)cc2)CC1` (centres undefined), the survival is inactive: 91%. The result for `Cc1cc2c(cc1S(=O)(=O)N(CCO)Cc1ccccc1)OCC(=O)N2` reads active: 46%. Consider `Cc1ccc2cc(C#N)c(SCC(=O)NCc3ccco3)nc2c1`, for which the survival was inactive: 94%. The result for `CCNS(=O)(=O)c1cc(-c2nnc(Nc3cccc(C(F)(F)F)c3)c3ccccc23)ccc1C` reads inactive: 72%; that for `COc1cccc(CN(C(=O)c2oc3ccc(Br)cc3c2C)C2CCS(=O)(=O)C2)c1` (centres undefined), active: 40%. In the case of `CCC(=O)N1CCc2cc(Br)cc(S(=O)(=O)NCc3cccc(OC)c3)c21`, the survival is inactive: 58%. The same measure for `Cc1coc2cc3oc(=O)c(CCC(=O)N4CCCCC4)c(C)c3cc12`: inactive: 66%. The result for `COC(=O)CNC(c1ccccc1)c1cc(Br)ccc1NC(=O)c1ccc(Cl)cc1` (centres undefined) reads inactive: 73%.

Take `Cc1nc2ccn(Cc3ccccc3)c(=O)c2cc1C(=O)Nc1ccc(F)cc1Cl`: the survival was inactive: 90%.

Turning to `CCN(CC)S(=O)(=O)c1ccc2c(c1)c(=O)c(C(=O)NCCc1ccc(OC)c(OC)c1)cn2C`, the survival is inactive: 83%. The same measure for `Cc1ccc(-n2nc3c(N4CCC(C(=O)NCCc5ccccc5)CC4)nnc(C)c3c2C)cc1`: inactive: 80%; for `CCOc1ccc(NC(=O)Nc2cccc(C)n2)cc1`: inactive: 88%. In the case of `COCCCN1CN=C(NS(=O)(=O)c2ccc(NC(C)=O)cc2)NC1`, the survival is inactive: 73%.

`COc1ccc(C)cc1NC(=O)CN(C)S(=O)(=O)c1ccc2c(c1)CCCN2C(C)=O`: the survival is inactive: 83%. The result for `COc1ccc(N2Cc3cccc(C(=O)Nc4ccc(C)cc4)c3C2=O)cc1` reads inactive: 70%; that for `CCOC(=O)c1sc2ccccc2c1S(=O)(=O)N1CCN(c2ccccc2F)CC1`, inactive: 96%; that for `COc1ccc(C)cc1NC(=O)CN1C(=O)CSc2ccc(S(=O)(=O)N3CCCC3)cc21`, inactive: 89%. The result for `CC1=C(c2cccc(Cl)c2)S(=O)(=O)NC1=NCc1ccccc1C` reads inactive: 99%; that for `CCC(=O)N1CCc2cc(S(=O)(=O)N3CCN(c4ccccc4F)CC3)ccc21`, inactive: 82%; that for `COc1cc(OC)c(NC(=O)Cn2nc(C)n3cccc3c2=O)cc1Cl`, inactive: 96%. The result for `CCN(CC)C(=O)CSc1nc(-c2ccccc2)cc(-c2ccc(OC)cc2)c1C#N` reads active: 45%; that for `Cc1ccc(C)c(NC(=O)CCc2nc3cccnc3n2Cc2cccs2)c1`, inactive: 73%; that for `Cc1ccccc1-c1ccnc2c(-c3ccc(F)cc3)c(C)nn12`, active: 6%.

For the compound `Cc1ccc(-c2cc(N)n(Cc3cccc(Cl)c3)n2)cc1`, the survival is active: 55%.

In the case of `COc1cccc(NC(=O)Cn2c(=O)n(-c3ccccc3)c(=O)c3c4c(sc32)CCCC4)c1`, the survival was inactive: 90%. The same measure for `c1ccc(C2CCC(N3CCNCC3)CC2)cc1` (centres undefined): inactive: 73%; for `Cc1cc2nc(NC(=O)c3ccc(S(=O)(=O)N4CCOCC4)cc3)sc2cc1C`: inactive: 98%. The same measure for `COc1ccccc1-c1noc(-c2ccc(NCc3ccccc3)c([N+](=O)[O-])c2)n1`: active: 35%; for `COc1ccc(C2Nc3ccccc3-n3c(-c4ccccc4)c4c(=O)n(C)c(=O)n(C)c4c32)cc1` (centres undefined): inactive: 79%. Consider `CCN(CC)C(=O)Cn1ncc2c([nH]c3ccc(C)cc32)c1=O`, for which the survival was inactive: 90%.

Consider `COc1ccc(NC(=O)c2ccc3c(c2)N(Cc2cccc(Cl)c2)C(=O)c2ccccc2S3(=O)=O)cc1Cl`, for which the survival is inactive: 88%. The same measure for `CCOc1ccccc1CNC(=O)C1CCN(C(=O)N2CCOc3ccc(Cl)cc32)CC1`: inactive: 52%; for `NC(=O)CN1C(=O)C(O)(CC(=O)/C=C\c2ccccc2)c2ccccc21` (centres undefined): inactive: 96%; for `Cc1ccc(-n2nc(C(=O)NCc3ccc(F)cc3Cl)c3c4ccccc4n(C)c3c2=O)cc1`: inactive: 131%. The result for `COC(=O)c1ccc(Nc2nc(-c3ccc(C)cc3)nc3ccccc23)cc1` reads active: 9%; that for `COc1ccc(-c2cn3nc(N4CCC(C(=O)NCc5cccc(Cl)c5)CC4)sc3n2)cc1`, inactive: 112%; that for `COc1cc(-c2noc(-c3ccc(N4CCCC4)c([N+](=O)[O-])c3)n2)cc(OC)c1OC`, inactive: 72%. The result for `CC(=O)N1CCc2c(sc3c2c(=O)n(Cc2ccccc2)c(=O)n3Cc2cccc(Cl)c2)C1` reads inactive: 102%; that for `Cc1ccccc1Cn1cnc2c(oc3ccccc32)c1=O`, inactive: 75%. Turning to `CCC(=O)N1CCc2cc(CNC(=O)Cc3ccc(OC)c(OC)c3)ccc21`, the survival is inactive: 72%. The same measure for `COc1cc(C(=O)N2CCc3c([nH]c4ccccc34)C2c2ccc(F)cc2)cc(OC)c1OC` (centres undefined): inactive: 113%. The same measure for `CC(=O)Nc1ccc(NC(=O)Cn2cc3c(n2)CCCCC3)cc1`: inactive: 117%; for `CC(CC(=O)Nc1ccccc1)c1ccccc1` (centres undefined): inactive: 108%; for `Cc1ccc2c(CC(=O)N3CCN(c4cccc(Cl)c4)CC3)coc2c1C`: inactive: 74%.

For the compound `COC(=O)CN1C(=O)CSc2ccc(S(=O)(=O)Nc3ccccc3)cc21`, the survival is inactive: 91%.

Consider `Cc1cccc(OCCSc2nc3ccc(NC(=O)COc4ccccc4C)cc3s2)c1`, for which the survival is inactive: 63%.

Source of the values: PubChem BioAssay AID463173 (ICCB-Longwood Screening Facility, Harvard Medical School, 2010).
